# Experimental data: the supplement of paper PMC9588766
# Counter-ions that a name gives are not always drawn. ± gives the standard deviation of the averaged measurements. Over roughly 2,000 compounds, “cell viability relative to DMSO control (compound alone)” has its median near 0.98; the lowest 2% begin near 0.23. The list shows a part of the results.
# Tested on: PDC-DUC18828
# Experiment: cell viability relative to DMSO control (compound alone) (fraction); PDC-DUC18828 is a patient-derived cholangiocarcinoma cell line; higher = less growth inhibition
# Settings: 1 µM; 72 h
# Method: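 Selleck Bioactive library screen in the patient-derived FGFR2-G3BP2 fusion-positive ICC cell line PDC-DUC18828 (500 cells/well). Each compound was tested at 1 uM alone, in triplicate, for 72 h. Viability was read by CellTiter-Glo and normalised to plate DMSO controls.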
row,Structure (SMILES),cell viability
1,COc1ccc(N(C(=O)Oc2c(C)cccc2C)c2ccnc(Nc3ccc(N4CCN(C)CC4)cc3)n2)c(OC)c1,0.992 ± 0.039
2,COC1=C[C@@H]2[C@@H]3Cc4ccc(OC)c(O)c4[C@]2(CCN3C)CC1=O [Sinomenine],0.943 ± 0.057
3,CN(C)CCc1ccc(O)cc1 [Hordenine],1.06 ± 0.024
4,N[C@@H]1C[C@H]1c1ccccc1 [Tranylcypromine (2-PCPA) HCl],0.969 ± 0.021
5,Cc1sc2c(c1C)C(c1ccc(Cl)cc1)=N[C@@H](CC(N)=O)c1nnc(C)n1-2,0.711 ± 0.022
6,[O-][n+]1ccccc1[S-].[O-][n+]1ccccc1[S-].[Zn+2] [Zinc Pyrithione],0.143 ± 0.017
7,C=CCN1CC[C@]23c4c5ccc(O)c4O[C@H]2C(=O)CC[C@@]3(O)[C@H]1C5 [Naloxone HCl],0.979 ± 0.075
8,C[C@@H]1CC[C@@]2(OC1)O[C@H]1C[C@H]3[C@@H]4CC=C5C[C@@H](O[C@@H]6O[C@H](CO)[C@@H](O[C@@H]7O[C@@H](C)[C@H](O)[C@@H](O)[C@H]7O)[C@H](O)[C@H]6O[C@@H]6O[C@@H](C)[C@H](O)[C@@H](O)[C@H]6O)CC[C@]5(C)[C@H]4CC[C@]3(C)[C@H]1[C@@H]2C [Dioscin],0.648 ± 0.028
9,Cn1cc(C2=C(c3cn(C4CCN(Cc5ccccn5)CC4)c4ccccc34)C(=O)NC2=O)c2ccccc21,0.988 ± 0.054
10,Cc1cccc(Cc2c[nH]cn2)c1C [Detomidine HCl],1.04 ± 0.016
11,Cc1cccc(C)c1NC(=O)CN1CCCC1=O [Nefiracetam],1.05 ± 0.043
12,O=c1ccc2cc(O[C@@H]3O[C@H](CO)[C@@H](O)[C@H](O)[C@H]3O)c(O)cc2o1 [Esculin],1.06 ± 0.023
13,O=C(O)C(=O)c1cn(Cc2ccccc2)c2ccc(-c3ccc(OC(F)(F)F)cc3)cc12 [Tiplaxtinin (PAI-039)],1 ± 0.042
14,CN1CCCCC1Cn1cc(C(=O)c2cc([N+](=O)[O-])ccc2I)c2ccccc21 (stereo not given),0.958 ± 0.045
15,c1ccc2c(c1)Nc1ccccc1S2 [Phenothiazine],0.958 ± 0.031
16,CC(=O)O[C@H]1C[C@@H]2CC[C@@H]3[C@H](CC[C@@]4(C)[C@H]3C[C@H]([N+]3(C)CCCCC3)[C@@H]4OC(C)=O)[C@@]2(C)C[C@@H]1[N+]1(C)CCCCC1 [Pancuronium dibromide],1.018 ± 0.0059
17,O=C(NCC1CCOCC1)c1cnc(Nc2ccc(Cl)cc2Cl)nc1C(F)(F)F,0.988 ± 0.059
18,C[C@]12CC[C@H](O)CC1=CC[C@@H]1[C@@H]2CC[C@]2(C)C(=O)CC[C@@H]12 [Dehydroepiandrosterone (DHEA)],1.11 ± 0.065
19,c1ccc([C@@H]2C[C@H]2NC2CCNCC2)cc1,1.05 ± 0.047
20,COc1ccc(CC2NCCc3cc(OC)c(OC)cc32)cc1OC (stereo not given) [Tetrahydropapaverine HCl],1 ± 0.04
21,CC[C@H](C)[C@@H]([C@@H](CC(=O)N1CCC[C@H]1[C@H](OC)[C@@H](C)C(=O)N[C@H](C)[C@@H](O)c1ccccc1)OC)N(C)C(=O)[C@@H](NC(=O)[C@@H](NC)C(C)C)C(C)C [Monomethyl auristatin E (MMAE)],0.261 ± 0.018
22,CC(C)OC(=O)[C@H](C)N[P@](=O)(CO[C@H](C)Cn1cnc2c(N)ncnc21)Oc1ccccc1 [Tenofovir Alafenamide (GS-7340)],0.915 ± 0.027

row,Structure (SMILES),cell viability
1,O=[N+]([O-])c1ncc[nH]1 [Azomycin],1.06 ± 0.038
2,O=c1cccc2n1C[C@@H]1CNC[C@H]2C1 [Cytisine],0.924 ± 0.055
3,CCN1CCN(C(=O)Cc2ccc(Nc3ncc(F)c(Nc4ccc(C(=O)Nc5ccccc5Cl)cc4)n3)cc2)CC1 [Aurora A Inhibitor I],0.536 ± 0.026
4,CC(O)(CS(=O)(=O)c1ccc(F)cc1)C(=O)Nc1ccc(C#N)c(C(F)(F)F)c1 (stereo not given) [Bicalutamide],0.91 ± 0.019
5,CCOC(=O)c1cncn1[C@H](C)c1ccccc1 [Etomidate],1.01 ± 0.025
6,O=C(O)c1nn(Cc2ccc(Cl)cc2Cl)c2ccccc12 [Lonidamine],1.02 ± 0.04
7,Cc1cc(C(C#N)c2ccc(Cl)cc2)c(Cl)cc1NC(=O)c1cc(I)cc(I)c1O (stereo not given) [Closantel Sodium],1.05 ± 0.04
8,Cc1cc(C(C#N)c2ccc(Cl)cc2)c(Cl)cc1NC(=O)c1cc(I)cc(I)c1O (stereo not given) [Closantel],1.08 ± 0.049
9,CC(C)(C)c1cc(C=C(C#N)C#N)cc(C(C)(C)C)c1O [Tyrphostin 9],0.353 ± 0.043
10,CCc1cc2c(s1)-n1c(C)nnc1CN=C2c1ccccc1Cl [Etizolam],0.984 ± 0.013
11,Cn1c(COP(=O)(NCCBr)NCCBr)cnc1[N+](=O)[O-],1.04 ± 0.047
12,Cc1sc2c(c1C)C(c1ccc(Cl)cc1)=N[C@@H](CC(=O)OC(C)(C)C)c1nnc(C)n1-2,0.853 ± 0.088
13,C/C(O)=C(\C#N)C(=O)Nc1cc(Br)ccc1Br,1.02 ± 0.038
14,Cc1ccccc1-n1c(Cn2ncc3c(N)ncnc32)nc2cccc(C)c2c1=O,0.995 ± 0.04
15,CCN(Cc1ccc(Cl)nc1)/C(=C/[N+](=O)[O-])NC [Nitenpyram],0.995 ± 0.07
16,CCC1(C)CC(=O)NC(=O)C1 [Bemegride],1.111 ± 0.011
17,COc1cc(OC)c(OC)cc1C=O [Asaraldehyde],1.05 ± 0.048
18,OC(c1ccccc1)(c1ccccc1)C1CCNCC1 [Azacyclonol],1 ± 0.039
19,C[C@H]1CNCCc2ccc(Cl)cc21 [Lorcaserin HCl],1.03 ± 0.035
20,C=C1C[C@@H]2[C@H](CC[C@]3(C)C(=O)CC[C@@H]23)[C@@]2(C)C=CC(=O)C=C12 [Exemestane],1.01 ± 0.032
21,Cc1ccc(-n2nccn2)c(C(=O)N2CCN(c3nc4cc(Cl)ccc4o3)CC[C@H]2C)c1 [Suvorexant (MK-4305)],1.05 ± 0.06
22,CCCN1CCO[C@@H]2c3cc(O)ccc3OC[C@H]21,0.937 ± 0.033

row,Structure (SMILES),cell viability
1,CCCCCCCCCCCCCCCC[n+]1ccccc1 [Cetylpyridinium Chloride],0.707 ± 0.038
2,O=P1(N(CCCl)CCCl)NCCCO1 (stereo not given) [Cyclophosphamide Monohydrate],1.05 ± 0.046
3,c1ccc2c(c1)sc1ccccc12 [Dibenzothiophene],1.07 ± 0.037
4,COc1cc(C)[nH]c(=O)c1CNC(=O)c1c(C)n([C@H](C)C2CCOCC2)c2ccccc12,0.982 ± 0.025
5,CN1C(=O)CCS(=O)(=O)C1c1ccc(Cl)cc1 (stereo not given) [Chlormezanone],1.02 ± 0.07
6,CNCC(O)c1ccc(O)cc1 (stereo not given) [Synephrine],1.02 ± 0.013
7,CNCC(O)c1ccc(O)cc1 (stereo not given) [Synephrine HCl],1.01 ± 0.038
8,CCOc1ccccc1-n1c(C(C)N2CCN(C(=O)COc3ccc(Cl)cc3)CC2)nc2ccccc2c1=O (stereo not given) [Erastin],0.905 ± 0.037
9,CN1[C@@H]2CC[C@H]1C[C@@H](OC(=O)C(CO)c1ccccc1)C2 (stereo not given in full) [Atropine],0.993 ± 0.02
10,C[C@]12CCC(=O)C(O)=C1CC[C@@H]1[C@@H]2CC[C@]2(C)C(=O)CC[C@@H]12 [Formestane],1.03 ± 0.065
11,N#C[C@H](O[C@@H]1O[C@H](C(=O)O)[C@@H](O)[C@H](O)[C@H]1O)c1ccccc1 [Laetrile],1.09 ± 0.03
12,COc1ccc(C(CN(C)C)C2(O)CCCCC2)cc1 (stereo not given) [Venlafaxine],1.08 ± 0.06
13,CCc1c(C(=O)C(N)=O)c2c(OCC(=O)O)cccc2n1Cc1ccccc1,1.02 ± 0.025
14,Cc1sc2c(c1C)C(c1ccc(Cl)cc1)=N[C@@H](CC(=O)Nc1ccc(O)cc1)c1nnc(C)n1-2,0.705 ± 0.04
15,C[C@@H]1[C@H](O)[C@@H](C)/C=C/C=C/CC/C=C/C=C/C=C/C=C/[C@H](O[C@H]2O[C@@H](C)[C@H](O)[C@@H](N)[C@H]2O)C[C@@H]2O[C@](O)(C[C@@H](O)[C@H](O)CC[C@@H](O)C[C@@H](O)C[C@@H](O)CC(=O)O[C@H]1C)C[C@H](O)[C@H]2C(=O)O [Nystatin (Fungicidin)],0.954 ± 0.056
16,CC(C)NCC(O)c1ccccc1Cl (stereo not given) [Clorprenaline HCl],1.02 ± 0.052
17,Cc1cc2c(C(C)C)c(O)c(O)c(C=O)c2c(O)c1-c1c(C)cc2c(C(C)C)c(O)c(O)c(C=O)c2c1O [Gossypol],0.856 ± 0.037
18,CN1CCN(c2nc3ccccc3nc2Cl)CC1,0.94 ± 0.065
19,CN(C)C(=O)Oc1ccc[n+](C)c1 [Pyridostigmine Bromide],0.954 ± 0.053
20,CCN(CC)C(=O)c1ccc(C2=CC3(CCNCC3)Oc3cccc(O)c32)cc1,0.966 ± 0.072
21,O=c1[nH]c2ccc(Cl)cc2c(N[C@@H]2CN3CCC2CC3)c1-c1nc2ccccc2[nH]1,0.948 ± 0.11
